In PubChem BioAssay AID1745845 (National Center for Advancing Translational Sciences (NCATS), 2022):
The campaign covered roughly 360,000 compounds. About 2,600 (0.72%) were called active. Inconclusive results, whose numbers are uncertain, are shown with a selection of clear calls. Calls follow the shape of the dose curve; as a rule, active = well fitted inhibition curve with a large enough effect; inconclusive = small, poorly fitted or top-dose-only effect; inactive = no such curve, though single readings can be large or run the other way. Potencies beside an inconclusive call are fits to weak or partial responses and may not hold up.

Assay: Primary qHTS for Inhibitors of ATXN expression; also: nearly all actives have a fitted effect of over 55% in size
Conditions: HEK-293 ATXN2-luciferase reporter, luminescence, 24 h; series mostly up to 57 µM
Method in brief: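 qHTS (up to 57 uM final) was run with 24 h compound exposure of reporter cells at 37 °C. Each well was multiplexed: SteadyGlo luminescence measured ATXN2-luciferase expression after a fluorogenic Gly-Phe-AFC viability readout (25 uM final).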
Potency is read from the fitted curve at half-maximal effect; tags tell the direction and shape of the fitted curve.

Structure (SMILES)	Potency
CCOC(=O)CCCNC(=O)COC(=O)c1cccc(C)c1O	inconclusive: 5.62 µM [inhibitor, single point]
COc1ccc(-c2nnc(NC(=O)c3ccc(S(=O)(=O)N4CCc5ccccc5C4)cc3)o2)cc1	inconclusive: 14.1 µM [inhibitor, partial curve]
CCCCCc1c(C)nc(NCc2ccccc2)[nH]c1=O	inactive
Cc1ccc2oc(=O)cc(CN3CCN(C/C=C/c4ccccc4)CC3)c2c1	inactive
C[C@]12c3[nH]c4ccc(Cl)cc4c3CCN1C(=O)[C@@H](CC(=O)NCCC1=CCCCC1)C[C@@H]2C(=O)N1CCOCC1	inconclusive: 28.2 µM [inhibitor, single point]
COc1cc(CNCCN2CCOCC2)ccc1OCc1ccc(Cl)cc1Cl	inconclusive: 31.6 µM [inhibitor, single point]
Cc1ccc(CNC(=O)Nc2cc(C(=O)NCc3cccc(F)c3)ccc2N2CCCC2)cc1	inconclusive: 1.12 µM [inhibitor, full curve, poor fit]
CCOC(=O)c1ccc(NCc2nc3ccccc3n2C)cc1	inactive
CCCCn1c(CNC(=O)C23CC4CC(CC(C4)C2)C3)nnc1SCC(=O)Nc1ccc(C)cc1	inconclusive: 39.8 µM [inhibitor, single point]
Nc1ccc2nc(SCC(=O)N3CCN(c4ccccc4)CC3)sc2c1	inconclusive: 3.98 µM [inhibitor, partial curve, poor fit]
Cc1cccc(Nc2nnc(SCC(=O)Nc3ccccc3[N+](=O)[O-])s2)c1C	inactive
CN(CC(=O)Nc1ccccc1Cl)C(=O)COC(=O)c1ccc(-c2ccc(O)cc2)cc1	inconclusive: 14.1 µM [inhibitor, partial curve]
O=C(Nc1nc(-c2ccc(F)c(F)c2)cs1)Nc1ccc(F)cc1F	active: 5.01 µM
O=C(CCNc1ccc(Br)cc1)c1cccc([N+](=O)[O-])c1	inactive
CCN(Cc1nc2cc(Cl)ccc2c(=O)[nH]1)C(=O)c1nn(C)c(=O)c2ccccc12	inactive
O=C(CNCCC1=CCCCC1)Nc1ccc(N2CCCCCC2)cc1	inconclusive: 39.8 µM [inhibitor, single point]
COc1ccc(Nc2c3c(nc4ccccc24)CCC3)cc1Cl	inconclusive: 15.8 µM [inhibitor, partial curve, poor fit]
CCC(C)Sc1nc2c(c(=O)[nH]c(=O)n2C)n1Cc1ccccc1Cl (stereo not drawn)	inactive
Cc1csc(NC(=O)c2cccc(Cn3nc(C)c(Br)c3C)c2)n1	inconclusive: 31.6 µM [inhibitor, single point]
COc1ccccc1CN(Cc1nc2ccccc2c(=O)[nH]1)S(=O)(=O)c1ccc2ccccc2c1	inconclusive: 39.8 µM [inhibitor, single point]
CC1CCN(S(=O)(=O)c2ccc(C(=O)Nc3nnc(C4CC4)o3)cc2)CC1	inconclusive: 28.2 µM [inhibitor, partial curve, poor fit]

Structure (SMILES)	Potency
O=C(CCC(=O)N1CCN(c2ccc(C(F)(F)F)cn2)CC1)c1cccs1	inconclusive: 5.01 µM [inhibitor, partial curve, poor fit]
CC1=CC(C)(C)Nc2ccc(OC(=O)CN3C(=O)C4CCCCC4C3=O)cc21 (stereo not drawn)	active: 31.6 µM
CCc1ccc(-c2cc(C)no2)cc1S(=O)(=O)N1CCN(c2ccccn2)CC1	inactive
CC1=C(C(=O)Nc2ccccc2C)C(c2cccs2)n2nc(SCc3ccccc3)nc2N1 (stereo not drawn)	inconclusive: 28.2 µM [inhibitor, single point]
CCc1ccc(N=C2NC(=O)/C(=C/c3cc(OC)c(OC)c(OC)c3)S2)cc1	inconclusive: 12.6 µM [inhibitor, partial curve, poor fit]
C#Cc1cccc(Nc2nc(NCc3ccccc3)nc3ccsc23)c1	inconclusive: 39.8 µM [inhibitor, single point]
CN(C)CCCN1C(=O)c2cccc3cccc(c23)C1=O	inconclusive: 26.7 µM [inhibitor, partial curve, poor fit]
CCCCN1C=CC(=C2C(=O)c3ccccc3C2=O)C=C1	inconclusive: 1.41 µM [inhibitor, full curve, poor fit]
COc1ccc(C(=O)c2[nH]c(N)c(C(=O)NCCc3c[nH]c4ccccc34)c2-c2ccccc2Br)cc1	inconclusive: 39.8 µM [inhibitor, single point]
COc1ccc(/C=N/NC(=S)Nc2ccccc2[N+](=O)[O-])cc1O	inactive
Cc1ccc(CN2CCC(CO)(CC3CCCCO3)CC2)o1 (stereo not drawn)	inactive
CC(C)(C)C1CCc2c(sc(NC(=O)c3cccc(Cl)c3)c2C(=O)NCc2ccco2)C1 (stereo not drawn)	inactive
COc1ccc(-c2nn(-c3ccccc3)cc2/C=N/Nc2ccccn2)cc1OC	inconclusive: 39.8 µM [inhibitor, single point]
CC(=O)Nc1cccc2c1OCCO2	inconclusive: 25.1 µM [inhibitor, partial curve, poor fit]
Nc1nc(-c2ccccc2)c(N=Nc2ccccc2Cl)s1	inconclusive: 39.8 µM [inhibitor, single point]
NC(c1csc(Nc2nncc3ccccc23)n1)C1CCCCC1 (stereo not drawn)	inconclusive: 25.1 µM [inhibitor, single point]
CCc1nc2c(OCC3CCCCC3)cccn2c1N(C)C(=O)c1ccccc1F	inconclusive: 28.2 µM [inhibitor, single point]
O=C(Nc1ccc2c(c1)CCCN2C(=O)c1cccs1)c1ccc(F)c(F)c1	inconclusive: 39.8 µM [inhibitor, single point]
C[C@@H]1CN([C@@H](C)CO)C(=O)c2cccc(NC(=O)Nc3ccc(F)cc3)c2O[C@@H]1CN(C)Cc1ccc(Oc2ccccc2)cc1	inconclusive: 39.8 µM [inhibitor, single point]
Cc1cccn2c(=O)c(C=C(C#N)C#N)c(N3CCN(c4cccc(Cl)c4)CC3)nc12	inconclusive: 28.2 µM [inhibitor, single point]
CCCCNc1c(-c2ccc(OC)c(SC(C)CC)c2)nc2cc(C)ccn12 (stereo not drawn)	active: 25.1 µM

Structure (SMILES)	Potency
Cc1c(NC(=O)C(C)OC(=O)c2ccc([N+](=O)[O-])s2)c(=O)n(-c2ccccc2)n1C (stereo not drawn)	inconclusive: 0.0336 µM [inhibitor, partial curve, poor fit]
O=C1CC(N2CCCCCC2)C(=O)N1c1ccc2c(c1)OCO2 (stereo not drawn)	inactive
CC(=O)NC(C)(c1ccccc1)c1nc(-c2ccc(F)c(Cl)c2)cs1 (stereo not drawn)	inconclusive: 39.8 µM [inhibitor, single point]
COc1ccc(OC(=O)N2C/C(=C/c3ccccc3)C(=O)/C(=C\c3ccccc3)C2)cc1	inconclusive: 15.8 µM [inhibitor, partial curve, poor fit]
O=C(Nc1cccc2c1CCCC2)c1cc(C2CCCCN2C(=O)c2cccs2)on1 (stereo not drawn)	inconclusive: 25.1 µM [inhibitor, partial curve, poor fit]
O=C(c1ccc(Oc2ccc(C(F)(F)F)cn2)cc1)N1CCN(c2ccccc2)CC1	inactive
O=C(Nc1ccc(Oc2ccc(Cl)cc2)c(Cl)c1)c1cc(I)cc(I)c1O	inactive
Cc1cccc(Nc2nnc(SC/C(O)=C(\C#N)c3nc4ccccc4[nH]3)s2)c1C	inactive
CCc1c(C)c2ccc(O)c(CN3CCN(c4ccc(F)cc4)CC3)c2oc1=O	inconclusive: 25.1 µM [inhibitor, partial curve, poor fit]
Cc1ccc(-c2nc(CS(=O)(=O)CC(=O)Nc3cc(F)ccc3F)c(C)o2)cc1	inconclusive: 7.94 µM [inhibitor, partial curve, poor fit]
NC(Cc1ccccc1)c1csc(Nc2nccc(C(F)(F)F)n2)n1 (stereo not drawn)	inconclusive: 39.8 µM [inhibitor, single point]
CCCOc1ccc(C(=O)NNC(=S)NC(=O)c2ccco2)cc1	inconclusive: 26.7 µM [inhibitor, partial curve, poor fit]
COCCCNC(=O)c1cccn2c(=O)c3cc4ccccc4cc3nc12	inconclusive: 31.6 µM [inhibitor, single point]
CCOC(=O)Oc1c(OC)cc(C(=O)O[C@@H]2C[C@@H]3CN4CCc5c([nH]c6cc(OC)ccc56)[C@H]4C[C@@H]3[C@H](C(=O)OC)[C@H]2OC)cc1OC	inconclusive: 17.8 µM [inhibitor, partial curve]
COc1ccc(F)c(F)c1C(=O)c1cnc(NC2CCN(S(C)(=O)=O)CC2)nc1N	active: 2.73 µM
CC(OC(=O)c1ccc(O)cc1)C(=O)Nc1cc(C(F)(F)F)ccc1Cl (stereo not drawn)	inconclusive: 25.1 µM [inhibitor, single point]
COc1cc(-c2cccc([C@H]3[C@@H]4C=CC[C@@H](C)[C@@H]4C(=O)N3Cc3ccccc3)c2)cc(OC)c1OC	inconclusive: 31.6 µM [inhibitor, partial curve, poor fit]
O=C(NNc1c2ccccc2nc2ccccc12)c1ccccc1O	inconclusive: 39.8 µM [inhibitor, partial curve, poor fit]
Cc1ccc(C)c(N2CCN(C(=O)c3cc(C)nc4c3c(C)nn4-c3ccccc3)CC2)c1	inactive
CCOc1cccc(CN2CCCC(N3CCc4ccccc4C3)C2)c1O (stereo not drawn)	inactive
C=C(CN(C)C)C(=O)c1ccc(OC2OC(COC(C)=O)C(OC(C)=O)C(OC(C)=O)C2OC(C)=O)cc1 (stereo not drawn)	inconclusive: 11.9 µM [inhibitor, partial curve, poor fit]
